Not every detail of the peptide structures is certain; ends, links or a residue may be inferred. At least one structure is not confirmed: it was looked up by name or label, or the drawing left a doubt. *1 amine or outer side, *2 acyl side, *3 side chain or, on linkers, in order; H or OH if unused. Where a SMILES comes first, the peptide text is derived from it. Bridges are numbered along the chain shown (N, C = ends). Roman numbers before positions name the chains, in order. [ ]: non-standard residue; d: D form. The star is where a group is joined. X2 = COCCOCCOCCOCCOCCOCCOCCOCCOCCC(=O)*; Diglycolyl = O=C(COCC(=O)[*:2])[*:1]; NMeR = CN[C@@H](CCCNC(=N)N)C(=O)O; β3hE = N[C@@H](CCC(=O)O)CC(=O)O; X1 = O=C(c1ccccc1C[*:2])[*:1]; Pen = CC(C)(S)[C@H](N)C(=O)O
target: T1, RPMI 8866 cells (Homo sapiens, UniProt P13612+P26010); assay: α4β7-MAdCAM Cell Adhesion Assay; type: cell-based; settings: thioether monomer peptides, Table 6; read-out: Cell-Adhesion A4B7
T1 sequence (P13612 34-1032): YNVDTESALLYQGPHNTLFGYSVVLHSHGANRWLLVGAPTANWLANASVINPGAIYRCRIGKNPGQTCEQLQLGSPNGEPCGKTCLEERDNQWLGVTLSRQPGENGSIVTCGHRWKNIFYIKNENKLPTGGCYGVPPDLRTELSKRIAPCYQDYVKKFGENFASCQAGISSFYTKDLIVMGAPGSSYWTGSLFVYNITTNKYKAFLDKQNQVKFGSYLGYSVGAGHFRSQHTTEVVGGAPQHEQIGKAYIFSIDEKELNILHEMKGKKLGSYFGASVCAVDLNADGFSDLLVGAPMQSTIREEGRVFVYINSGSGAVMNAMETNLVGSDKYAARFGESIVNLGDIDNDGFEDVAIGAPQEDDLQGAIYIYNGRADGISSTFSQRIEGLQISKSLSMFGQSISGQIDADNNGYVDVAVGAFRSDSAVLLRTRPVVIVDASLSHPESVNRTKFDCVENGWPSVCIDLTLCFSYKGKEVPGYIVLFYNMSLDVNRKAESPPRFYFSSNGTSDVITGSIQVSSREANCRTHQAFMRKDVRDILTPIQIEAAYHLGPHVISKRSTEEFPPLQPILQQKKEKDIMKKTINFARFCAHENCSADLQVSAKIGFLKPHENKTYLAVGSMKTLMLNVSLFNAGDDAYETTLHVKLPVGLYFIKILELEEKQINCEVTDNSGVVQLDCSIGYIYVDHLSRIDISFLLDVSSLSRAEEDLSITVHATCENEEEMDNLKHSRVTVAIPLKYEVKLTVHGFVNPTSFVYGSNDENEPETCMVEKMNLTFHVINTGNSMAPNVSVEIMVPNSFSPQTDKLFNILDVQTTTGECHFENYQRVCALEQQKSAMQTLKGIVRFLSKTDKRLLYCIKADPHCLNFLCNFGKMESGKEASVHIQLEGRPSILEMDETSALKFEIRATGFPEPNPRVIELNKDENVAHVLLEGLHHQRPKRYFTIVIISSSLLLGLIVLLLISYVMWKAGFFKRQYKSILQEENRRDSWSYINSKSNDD
T1 sequence (P26010 20-798): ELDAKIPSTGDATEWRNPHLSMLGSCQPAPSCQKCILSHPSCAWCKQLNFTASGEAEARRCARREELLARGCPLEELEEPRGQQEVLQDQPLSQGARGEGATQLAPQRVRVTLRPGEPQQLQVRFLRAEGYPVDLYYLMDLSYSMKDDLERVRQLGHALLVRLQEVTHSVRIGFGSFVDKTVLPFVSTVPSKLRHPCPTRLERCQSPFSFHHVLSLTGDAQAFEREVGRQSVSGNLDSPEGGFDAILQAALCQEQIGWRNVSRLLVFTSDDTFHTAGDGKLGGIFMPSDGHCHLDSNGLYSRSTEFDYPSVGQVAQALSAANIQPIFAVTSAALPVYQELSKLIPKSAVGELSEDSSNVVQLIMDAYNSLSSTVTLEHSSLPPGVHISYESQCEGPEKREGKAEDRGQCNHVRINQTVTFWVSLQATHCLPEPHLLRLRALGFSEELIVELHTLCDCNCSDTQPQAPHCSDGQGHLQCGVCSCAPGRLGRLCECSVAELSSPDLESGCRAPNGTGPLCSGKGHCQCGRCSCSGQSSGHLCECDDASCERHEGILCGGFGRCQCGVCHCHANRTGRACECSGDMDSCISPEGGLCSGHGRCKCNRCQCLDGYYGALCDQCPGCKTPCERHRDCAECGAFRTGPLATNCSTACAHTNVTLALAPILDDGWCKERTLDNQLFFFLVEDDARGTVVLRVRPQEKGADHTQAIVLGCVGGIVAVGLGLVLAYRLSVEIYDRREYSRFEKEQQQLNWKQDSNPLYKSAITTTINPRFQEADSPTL
Method: α4β7-MAdCAM Cell Adhesion Assay
RPMI 8866 cells (Sigma #95041316) were cultured in RPMI 1640 HEPES medium (Invitrogen #22400-089) supplemented with 10% serum (Fetal Bovine Serum, Invitrogen #16140-071), 1 mM sodium pyruvate (Invitrogen #11360-070), 2 mM L-glutamine (Invitrogen #25030-081) and Penicillin-Streptomycin (Invitrogen #15140-122) at 100 units of penicillin and 100 μg of streptomycin per ml. The cells were washed two times in DMEM medium (ATCC #30-2002) supplemented with 0.1% BSA, 10 mM HEPES pH 7 and 1 mM MnCl2. The cells were re-suspended in supplemented DMEM medium at a density of 4×10^6 cells/ml.
A Nunc MaxiSorp plate was coated with rh MAdCAM-1/Fc Chimera (R&D #6065-MC) at 200 ng per well in 50 ul per well in 1×PBS and incubated at 4° C. overnight. The solution was then removed by shaking, blocked with 250 ul per well PBS containing 1% BSA, and incubated at 37° C. for 1 hr. The solution was removed by shaking. Peptides were diluted by serial dilution in a final volume of 50 ul per well (2× concentration). To each well, 50 ul of cells (200,000 cells) were added and the plate was incubated at 37° C., 5% CO2 for 30-45 min to allow cell adhesion. The wells were washed manually three times (100 ul per wash) with supplemented DMEM. After the final wash, 100 μl/well of supplemented DMEM and 10 ul/well of MTT reagent (ATTC cat #30-1010K) were added. The plate was incubated at 37° C., 5% CO2 for 2-3 hrs until a purple precipitate is visible. 100 ul of Detergent Reagent (ATTC cat #30-1010K) was added to each well. The plate was covered from the light, wrapped in Parafilm to prevent evaporation, and left overnight at room temperature in the dark. The plate was shaken for 5 min and the absorbance at 570 nm is measured. To calculate the dose response, the absorbance value of control wells not containing cells was subtracted from each test well.

Compared with `CC(C)C[C@@H]1NC(=O)[C@H]([C@@H](C)O)NC(=O)[C@H](CC(=O)O)NC(=O)[C@H](CO)NC(=O)[C@H](CCCNC(=N)N)N(C)C(=O)c2ccccc2CSC(C)(C)[C@@H](C(=O)N[C@@H](Cc2c[nH]c3ccccc23)C(=O)N[C@@H](CCC(=O)O)C(=O)N[C@H](CCCCN)C(N)=O)NC1=O` [compound 56] (HELM PEPTIDE1{[meR].S.D.T.L.[Pen].W.E.[dK].[am]}|CHEM1{[O=C(c1ccccc1C[*:2])[*:1]]}$PEPTIDE1,CHEM1,1:R1-1:R1|PEPTIDE1,CHEM1,6:R3-1:R2$$$V2.0), `CC(C)C[C@@H]1NC(=O)[C@H]([C@@H](C)O)NC(=O)[C@H](CC(=O)O)NC(=O)[C@H](CO)NC(=O)[C@H](CCCNC(=N)N)N(C)C(=O)c2ccccc2CSC(C)(C)[C@@H](C(=O)N[C@@H](Cc2ccccc2)C(=O)N[C@H](CCC(=O)O)C(=O)N[C@H](CCCCN)C(N)=O)NC1=O` [compound 65] (HELM PEPTIDE1{[meR].S.D.T.L.[Pen].F.[dE].[dK].[am]}|CHEM1{[O=C(c1ccccc1C[*:2])[*:1]]}$PEPTIDE1,CHEM1,1:R1-1:R1|PEPTIDE1,CHEM1,6:R3-1:R2$$$V2.0) is lower in IC50: 100 to 1000 nM for the first, 25 to 100 nM for the second.

First: COCCOCCOCCOCCOCCOCCOCCOCCOCCC(=O)NCCCC[C@@H](NC(=O)[C@@H](CCC(=O)O)NC(=O)[C@H](Cc1c[nH]c2ccccc12)NC(=O)[C@H]1NC(=O)[C@H](CC(C)C)NC(=O)[C@H]([C@@H](C)O)NC(=O)[C@H](CC(=O)O)NC(=O)[C@H](CO)NC(=O)[C@H](CCCNC(=N)N)N(C)C(=O)c2ccccc2CSC1(C)C)C(N)=O [compound 82] ([NMeR]SDTL[Pen]W[dE][dK](X2)-NH2; linker N-6 via X1)
Second: CC(C)C[C@@H]1NC(=O)[C@H]([C@@H](C)O)NC(=O)[C@H](CC(=O)O)NC(=O)[C@H](CO)NC(=O)[C@H](CCCNC(=N)N)N(C)C(=O)c2ccccc2CSC(C)(C)[C@@H](C(=O)N[C@@H](Cc2c[nH]c3ccccc23)C(=O)N[C@H](CCC(=O)O)C(N)=O)NC1=O [compound 97] (HELM PEPTIDE1{[meR].S.D.T.L.[Pen].W.[dE].[am]}|CHEM1{[O=C(c1ccccc1C[*:2])[*:1]]}$PEPTIDE1,CHEM1,1:R1-1:R1|PEPTIDE1,CHEM1,6:R3-1:R2$$$V2.0)
The IC50 of the first is higher: 100 to 1000 nM for the first, 25 to 100 nM for the second.

`CC(=O)NCCCC[C@@H](NC(=O)[C@H](CCC(=O)O)NC(=O)[C@H](Cc1ccc(C(F)(F)F)cc1)NC(=O)[C@H]1NC(=O)[C@H](CC(C)C)NC(=O)[C@H]([C@@H](C)O)NC(=O)[C@H](CC(=O)O)NC(=O)[C@H](CO)NC(=O)[C@H](CCCNC(=N)N)N(C)C(=O)c2ccccc2CSC1(C)C)C(N)=O` [compound 88] (HELM PEPTIDE1{[meR].S.D.T.L.[Pen].[O=C([C@H](Cc1ccc(C(F)(F)F)cc1)N[*:1])[*:2]].E.[dK].[am]}|PEPTIDE2{[ac]}|CHEM1{[O=C(c1ccccc1C[*:2])[*:1]]}$PEPTIDE1,PEPTIDE2,9:R3-1:R2|PEPTIDE1,CHEM1,1:R1-1:R1|PEPTIDE1,CHEM1,6:R3-1:R2$$$V2.0) and `CC(C)C[C@@H]1NC(=O)[C@H]([C@@H](C)O)NC(=O)[C@H](CC(=O)O)NC(=O)[C@H](CO)NC(=O)[C@H](CCCNC(=N)N)N(C)C(=O)c2ccccc2CSC(C)(C)[C@@H](C(=O)N[C@@H](Cc2c[nH]c3ccccc23)C(=O)N[C@H](CCC(=O)O)C(N)=O)NC1=O` [compound 98] (HELM PEPTIDE1{[meR].S.D.T.L.[Pen].W.[dE].[am]}|CHEM1{[O=C(c1ccccc1C[*:2])[*:1]]}$PEPTIDE1,CHEM1,1:R1-1:R1|PEPTIDE1,CHEM1,6:R3-1:R2$$$V2.0) fall in the same range of IC50: 25 to 100 nM for the first, 25 to 100 nM for the second.

same assay, conditions: thioether peptide dimers, Table 7; read-out: Cell-Adhesion A4B7

With `CC(C)C[C@@H]1NC(=O)[C@H]([C@@H](C)O)NC(=O)[C@H](CC(=O)O)NC(=O)[C@H](CO)NC(=O)[C@H](CCCNC(=N)N)N(C)C(=O)c2ccccc2CSC(C)(C)[C@@H](C(=O)N[C@@H](Cc2ccc(O)cc2)C(=O)N[C@@H](CCC(=O)O)CC(=O)N[C@H](CCCCNC(=O)COCC(=O)NCCCC[C@@H](NC(=O)C[C@H](CCC(=O)O)NC(=O)[C@H](Cc2ccc(O)cc2)NC(=O)[C@H]2NC(=O)[C@H](CC(C)C)NC(=O)[C@H]([C@@H](C)O)NC(=O)[C@H](CC(=O)O)NC(=O)[C@H](CO)NC(=O)[C@H](CCCNC(=N)N)N(C)C(=O)c3ccccc3CSC2(C)C)C(N)=O)C(N)=O)NC1=O` [compound 165] (I: [NMeR]SDTL[Pen]Y[β3hE][dK]-NH2 / II: [NMeR]SDTL[Pen]Y[β3hE][dK]-NH2; linker I:9-II:9 via Diglycolyl; linker I:N-I:6, II:N-II:6 via X1) the IC50 was under 25 nM.
